T1: human IL-17F (human, UniProt Q96PD4 31-163, biotinylated in the ELISA (FluoReporter Mini-biotin-XX kit); sites not stated)
T1 construct: Homodimer; also called hIL-17F
T1 sequence: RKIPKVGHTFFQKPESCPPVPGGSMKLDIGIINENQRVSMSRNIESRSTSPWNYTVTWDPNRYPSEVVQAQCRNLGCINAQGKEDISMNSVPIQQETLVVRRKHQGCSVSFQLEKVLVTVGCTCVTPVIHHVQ

B1: human IL-17A (ligand)
chain: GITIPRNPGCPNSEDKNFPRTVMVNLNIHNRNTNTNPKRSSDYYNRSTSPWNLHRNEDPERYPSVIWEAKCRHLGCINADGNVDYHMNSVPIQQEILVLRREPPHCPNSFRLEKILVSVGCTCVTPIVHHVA
modifications: biotinylated in the ELISA (FluoReporter Mini-biotin-XX kit); sites not stated
notes: Homodimer; it was purified by methods of US 11/353,161 and Wright et al. 2007; also called hIL-17A
B2: human IL-17F/IL-17A heterodimer (ligand)
chain 1: RKIPKVGHTFFQKPESCPPVPGGSMKLDIGIINENQRVSMSRNIESRSTSPWNYTVTWDPNRYPSEVVQAQCRNLGCINAQGKEDISMNSVPIQQETLVVRRKHQGCSVSFQLEKVLVTVGCTCVTPVIHHVQ
chain 2: [about 150 residues not shown]
modifications: biotinylated in the ELISA; sites not stated
notes: Heterodimer of one IL-17F chain and one IL-17A chain; also called hIL-17F/IL-17A; hIL-17F/A
B3: human IL-17RC.Fc (Fc fusion)
chain: LERLVGPQDATHCSPGLSCRLWDSDILCLPGDIVPAPGPVLAPTHLQTELVLRCQKETDCDLCLRVAVHLAVHGHWEEPEDEEKFGGAADSGVEEPRNASLQAQVVLSFQAYPTARCVLLEVQVPAALVQFGQSVGSVVYDCFEAALGSEVRIWSYTQPRYEKELNHTQQLPALPWLNVSADGDNVHLVLNVSEEQHFGLSLYWNQVQGPPKPRWHKNLTGPQIITLNHTDLVPCLCIQVWPLEPDSVRTNICPFREDPRAHQNLWQAARLRLLTLQSWLLDAPCSLPAEAALCWRAPGGDPCQPLVPPLSWENVTVDKVLEFPLLKGHPNLCVQVNSSEKLQLQECLWADSLGPLKDDVLLLETRGPQDNRSLCALEPSGCTSLPSKASTRAARLGEYLLQDLQSGQCLQLWDDDLGALWACPMDKYIHKRAGSGSGSG[human IgG1 Fc with L234A G237A (EU numbers) not shown]
notes: also called hIL-17RC.Fc

Legend:
[1] = biological target: B3; assay: indirect sandwich ELISA: IL-17RC.Fc captured on goat anti-human IgG-Fc, biotinylated cytokine titrated, Poly-HRP streptavidin
Description: Binding of human IL-17F, hIL-17A or hIL-17F/IL-17A to human IL-17R.Fc (hIL-17R.Fc) and IL-17RC.Fc (hIL-17RC.Fc) was determined by indirect sandwich ELISA. ELISA plates (Costar, Cambridge Mass.) were coated overnight with 10 μg/ml goat anti-human IgG-Fc (Bethyl Laboratories, Montgomery, Tex.). Human IL-17R.Fc or hIL17-RC.Fc was then loaded at 6 ng/ml and 30 ng/ml, respectively, for 3 hours, followed by serial dilutions of biotinylated IL-17A, IL-17F or IL-17F/IL-17A for 2 hours. The plate was developed with Poly-HRP Streptavidin (Pierce Biotechnology, Rockford, Ill.) and TMB Substrate (KPL Labs, Gaithersburg, Md.).
The binding of hIL-17F, hIL-17A or hIL-17F/IL-17A to hIL-17R.Fc and/or hIL-17RC.Fc was evaluated by indirect sandwich ELISA. All three cytokines bound to hIL-17RC.Fc with approximately the same EC₅₀ of 18-25 ng/ml (FIG. 1B). However, the EC₅₀ for the three cytokines were different for binding to hIL-17R.Fc. The tightest binding occurred between hIL-17A and hIL-17R.Fc with an EC₅₀ of 25 ng/ml. Human IL-17F bound weakly to hIL-17R.Fc with an EC₅₀ greater than 2000 ng/ml.

[2] = biological target: T1, human IL-17F; assay: SPR (Biacore 2000), receptor.Fc amine-coupled, cytokine injected, 1:1 model, 22 C
Description: (§1) A Biacore 2000 instrument (Biacore, Piscataway, N.J.) was used for kinetic measurements. Sensor chip surfaces comprising purified hIL-17R.Fc or hIL-17RC.Fc (Wyeth, Cambridge, Mass.) were prepared using amine coupling according to the manufacturer's recommendation (Biacore). Briefly, the sensor chip surface was first activated by injecting a mixture of N-ethyl-N-(2-dimethylaminopropyl) carbodiimide hydrochloride and N-hydroxysuccinimide (NHS-EDC) (Biacore) over each flow cell. Five μg/ml hIL-17R.Fc or hIL-17RC.Fc in 10 mM sodium acetate at a pH of 4.5 was injected over separate flow cells, with a desired target level of 1000 to 2000 RU. Remaining active sites were blocked by 1 M ethanolamine HCl. A reference surface was prepared with an injection of NHS-EDC followed by 1 M ethanolamine HCl. All experiments were performed at 22° C. and the data collection rate was 10 Hz. Human IL-17F, hIL-17A or hIL-17F/IL-17A heterodimer was each diluted into HBST buffer (10 mM Hepes with 0.15 M NaCl, 3.4 mM EDTA, and 0.005% surfactant P20) at an initial concentration of 400 nM and serially diluted to 100 nM, 50 nM, 25 nM, 12.5 nM, 6.25 nM, 3.12 nM and 1.56 nM in the same buffer. Samples were injected in triplicate over each sensor surface at 50 μL/minute to allow for 3-minute association followed by 10-minute dissociation. The surface was regenerated at the end of each dissociation with a 30-second injection of 30% solution of 1.83 M MgCl₂, 0.46 M KSCN, 0.92 M urea, and 1.83 M guanidine-HCl, followed by two consecutive 15-second HBST injections. Samples were tested at least twice to obtain results from more than one immobilized sensor surface. Data were double referenced as described in Myszka ((1999) J. Mol. Recognit. 12:249-84) to improve data quality using Scrubber2 software (BioLogic Software v2.0a, Campbell, Australia). The resulting kinetic data was fit to a 1:1 binding model using Biacore evaluation software version 3.2.
(§2) The binding kinetics of human IL-17F, hIL-17A and hIL-17F/IL-17A to both hIL-17R.Fc and hIL-17RC.Fc receptors were compared. The association and dissociation rate constants were directly measured by real-time surface plasmon resonance using Biacore, as described in Example 1.1.12.

[3] = biological target: B1; assay: as above
Description: as §1, §2

[4] = biological target: B2; assay: as above
Description: as §1, §2

Binder	EC50 (read off the curve) [1] [µg/mL]	Kd [2] [nM]	koff [2] [s⁻¹]	kon [2] [M⁻¹ s⁻¹]	Kd [3] [nM]	koff [3] [s⁻¹]	kon [3] [M⁻¹ s⁻¹]	Kd [4] [nM]	koff [4] [s⁻¹]	kon [4] [M⁻¹ s⁻¹]
B1	~0.02	–	–	–	–	–	–	–	–	–
B2	~0.02	–	–	–	–	–	–	–	–	–
B3	–	16.6	0.00212	128000	20.1	0.00179	89200	10.6	0.00151	144000
human IL-17R.Fc (Fc fusion, also called hIL-17R.Fc; IL-17RA.Fc) LRLLDHRALVCSQPGLNCTVKNSTCLDDSWIHPRNLTPSSPKDLQIQLHFAHTQQGDLFPVAHIEWTLQTDASILYLEGAELSVLQLNTNERLCVRFEFLSKLRHHHRRWRFTFSHFVVDPDQEYEVTVHHLPKPIPDGDPNHQSKNFLVPDCEHARMKVTTPCMSSGSLWDPNITVETLEAHQLRVSFTLWNESTHYQILLTSFPHMENHSCFEHMHHIPAPRPEEFHQRSNVTLTLRNLKGCCRHQVQIQPFFSSCLNDCLRHSATVSCPEMPDTPEPIPDYMGSGSGSG[human IgG1 Fc with L234A G237A (EU numbers) not shown]	–	174	0.00164	9430	2.15	0.000294	139000	25.5	0.00103	42800
